ChEMBL document CHEMBL1201862, “PubChem BioAssay data set” (2004)

Test system: NCI-H322M
Assay: NCI-60 cell line screen, 48 h

SMILES	GI50
CCCCCCCCC/C=C1/CC(CO)(COC(=O)c2ccccc2)OC1=O (stereo not given)	inactive: 22.8 µM
Cc1cc(S(=O)(=O)Nc2nc(N)n(-c3ccccc3)n2)c(S)cc1Cl	inactive: > 100 µM
N=C(N)NC(=N)Nc1ccc(S(N)(=O)=O)cc1	inactive: > 100 µM
CCn1c(-c2c(Cl)cc(O)cc2Cl)cc2c(Cl)cc(O)cc21	inactive: 10.7 µM
CC(=O)Oc1cc2c(cc1OC(C)=O)[C@H]1CC[C@]3(C)[C@@H](OC(C)=O)CC[C@H]3[C@@H]1CC2	inactive: 7.23 µM
O=C(O)Cc1cccnc1	inactive: > 100 µM
O=C1CC(=O)N(C2CCCCC2)C(=O)N1c1ccccc1S(=O)(=O)Oc1ccccc1	inactive: > 100 µM
C=C1CCc2ccccc2C1=O	inactive: > 100 µM
NC(=O)C1=CC2C3C=CC2(O)C(=O)OC3O1 (stereo not given)	inactive: 13.6 µM
CCOc1ccccc1NC(=O)C1=C(C)NC(C)=C(C(=O)Nc2ccccc2OCC)C1c1ccc2c(c1)OCO2	inactive: 50.2 µM
Cc1ccc(S(=O)OC2c3ccccc3Cc3ccccc32)cc1 (stereo not given)	inactive: 23.9 µM
CCOC(=O)C[C@@H](C)[C@]1(C(=O)OC)CCCC1=O	inactive: > 100 µM
O=c1cccccc1NCCCCNc1cccccc1=O	inactive: > 100 µM
NC1=Nc2ccccc2Sc2nnc(-c3ccc(Cl)cc3)n21	inactive: > 100 µM
O=C1/C(=C/c2ccc(O)c(CN3CCCCC3)c2)CCC/C1=C\c1ccc(O)c(CN2CCCCC2)c1	inactive: 15.5 µM
O=c1oc2ccc(Cl)cc2c2ccccc12	inactive: > 100 µM
O=C1CCCCC2N(C(c3ccccc3)c3ccccc3)CC[C@@]12c1ccccc1.O=C1CCCC[C@H]2N(C(c3ccccc3)c3ccccc3)CC[C@@]12c1ccccc1 (stereo not given in full)	inactive: > 10 µM
Cc1c(C)n(-c2ccccc2)c2nc([S+](C)[O-])nc([S+](C)[O-])c12 (stereo not given)	inactive: 17.3 µM
CC(=O)NNc1ncc(C(=O)/C=C/c2ccccc2C)s1	inactive: > 100 µM
CCCCC(=O)Nc1ccc2cc(C(=O)OC)c(Cl)nc2n1	inactive: 4.72 µM
COCCN(C(C)=O)C1CCC2(SCCS2)c2[nH]c3ccccc3c21 (stereo not given)	inactive: > 100 µM
C/C(C=O)=N\Nc1cc(C)c2ccccc2n1	inactive: 16.2 µM
Cc1cccc(NC(=O)CC(=O)N2N=C(N(CCC#N)c3ccc(Cl)cc3)CC2c2ccccc2)c1 (stereo not given)	inactive: > 100 µM
N#Cc1nc(-c2ccsc2)oc1N	inactive: > 100 µM

SMILES	GI50
CN(C)/N=N/c1ccc([N+](=O)[O-])cc1C(N)=O	inactive: > 100 µM
C#C[C@@]1(O)CCCC2=CC3(CC[C@]21C)SCCS3	inactive: > 100 µM
O=C1CCC(=O)C1=NNc1cc(Cl)cc(Cl)c1	inactive: > 100 µM
COc1ccc(/C=C2/S/C(=N\c3ccccc3)N(NC(=O)Cc3ccccc3)C2=O)c(OC)c1	inactive: > 100 µM
CCOC(=O)c1sc2c(c1O)c(=O)n(-c1ccccc1)c(=S)n2-c1ccccc1	inactive: 23.1 µM
O=C(c1ccco1)N(C(=S)OCc1ccccn1)c1ccccc1	inactive: > 100 µM
CN(C)C(=O)OC(Cn1cncn1)c1ccc(Cl)cc1Cl (stereo not given)	inactive: > 100 µM
CC(C)(C)c1cc(C(=O)C2Cc3ccccc3C(=O)O2)cc(C(C)(C)C)c1O (stereo not given)	inactive: 14.1 µM
C=CCOc1ccc(C(=N/NC(=O)c2ccccc2)/N=N/c2ccc(C)cc2)cc1OC	inactive: 38.4 µM
COc1cc(CNc2c3ccccc3nc3ccccc23)cc(OC)c1OC	inactive: 3.94 µM
COc1ccc(-c2nc(-c3cnccn3)n(COCCO)n2)cc1	inactive: > 100 µM
CCCCCCn1c(SC)nc(COC(=O)NC)c1COC(=O)NC	inactive: 17.9 µM
O=C1N[C@@H](O)[C@@H]2ON=C(c3ccccc3)[C@H]12	inactive: > 100 µM
C=C(COC(=O)C(C)C)[C@H]1Oc2ccc(C(C)=O)cc2[C@@H]1OC(=O)C(C)C	inactive: > 100 µM
O=[N+]([O-])c1cccc(-c2csc(N/N=C3\NC/C(=C/c4ccc5c(c4)OCO5)S3)n2)c1	inactive: 40.6 µM
CC(=O)c1nccc2c1c(C)nc1ccccc12	inactive: > 100 µM
C=C(C)C(=O)O[C@@H]1C[C@@]2(C)O[C@@H]2C[C@H](O)/C(C)=C/[C@H]2OC(=O)C(=C)[C@@H]21	inactive: > 100 µM
Cc1ccc2c(=O)c(C(=O)Nn3c(C)csc3=S)c[nH]c2n1	inactive: > 100 µM
CN(C)CCNC(=O)c1cccc2ccc(-c3ccc(Br)cc3)nc12	inactive: 3.21 µM
O=C(O)Cn1c(=O)[nH]c(=O)c2c1ncn2Cc1ccccc1	inactive: > 100 µM
C/C(=N\NC(=S)N1CCCCCCCCCCCC1)c1ccccn1	active: 0.31 µM
O=c1cc2ccccc2nn1Cc1cccc(Cl)c1	inactive: > 100 µM
COC(=O)c1c(O)ccc2c1c1c(n2Cc2ccccc2OC)C(=O)c2ccccc2C1=O	inactive: 24.8 µM
O=C(O)c1ccccc1NC(=S)c1ccccc1	inactive: 79.3 µM

SMILES	GI50
COC(=O)C1=C(C(=O)OC)SC2(S1)C(C(=O)OC)=C(C(=O)OC)Sc1c2ss/c1=N/C(C)(C)C	inactive: 5.01 µM
COc1cc(S(=O)(=O)Nc2ccc(-c3csc(/N=C\C=C\c4ccccc4)n3)cc2)ccc1Cl	inactive: > 100 µM
CNC(=S)NN=C1NCCCCN1	inactive: > 100 µM
Cc1cc2ccccc2n2c1nc1ccc(O)cc12	inactive: > 10 µM
COC(CC1(/C=C/O[Si](C(C)C)(C(C)C)C(C)C)C(=O)N(C)c2ccccc21)OC (stereo not given)	inactive: > 100 µM
CC1=CC=NN2C(=O)[C@H](C)C2C1 (stereo not given in full)	inactive: > 100 µM
OC(CN(CCCl)CCCl)C(O)C(O)C(O)CN(CCCl)CCCl (stereo not given)	inactive: > 100 µM
Cc1ccc(C(=O)OC[C@H]2CC[C@@H](n3cc(N(C)C4CCCCC4)c(=O)[nH]c3=O)O2)cc1	inactive: 49.5 µM
CC[C@@H]1CC[C@@H]2[C@H](CC[C@]3(C)[C@@H](OS(=O)(=O)c4ccc(C)cc4)CC[C@@H]23)[C@H]1COS(=O)(=O)c1ccc(C)cc1	inactive: > 100 µM
CC(C(=O)c1ccc(O)cc1)C1(O)C(=O)Nc2c(Cl)cc(Cl)cc21 (stereo not given)	inactive: > 100 µM
O=C(/C=C/C(=O)N1CCCC1)N1CCCC1	inactive: > 100 µM
CCOC(=O)c1sc2nc(SC)nc3c2c1NCN3C1CC1	inactive: > 100 µM
Cc1ccc(S(=O)(=O)c2c(N)n(CCN(C)C)c3nc4ccccc4nc23)cc1	inactive: > 100 µM
CC(C)Cc1ccc(C(C)/C=C2\CCC(CN(C)C)C2=O)cc1 (stereo not given)	inactive: 19.2 µM
COc1cc(/C=N/c2nc3cc4sc(/N=C/c5cc(OC)c(OC)c(OC)c5)nc4cc3s2)cc(OC)c1OC	inactive: > 100 µM
N=C(N)N/N=C(/CCN1CCCC1)CC(c1ccccc1)c1c(O)c2ccccc2oc1=O (stereo not given)	inactive: > 100 µM
CC(N)/C(N)=N/O (stereo not given)	inactive: > 100 µM
Cc1cc2c(c(C(=O)NCC(=O)O)c1)Oc1c(cc(C)cc1C(=O)NCC(=O)O)S2	inactive: > 100 µM
CC1(C)[C@@H](Cn2cc(I)c(=O)[nH]c2=O)CC[C@@]1(C)CO	inactive: > 100 µM
CC1(C)CCCCCC(C)(CCCCCCCCCCCO)C1=O (stereo not given)	inactive: 15.3 µM
O=C(CC1(O)C(=O)Nc2ccccc21)c1ccc(Cl)cc1Cl (stereo not given)	inactive: > 100 µM
CCC(C)c1cccc(C)c1NC(=O)C(=O)Cc1nc2ccccc2s1 (stereo not given)	inactive: > 100 µM
Cn1c(-c2cccs2)cc(-c2ccsc2)c1-c1ccsc1	inactive: 88.9 µM
CCOC(=O)/C(C#N)=C/c1ccc2c(c1)CC1(C2)Cc2cc(CC)c(C(C)O)cc2C1 (stereo not given)	inactive: 32.3 µM

SMILES	GI50
O/N=C1/COC(C(F)(F)F)(C(F)(F)F)C1	inactive: > 100 µM
Cn1c(C(O)C2(c3cccnc3)SCCCS2)cc2ccccc21 (stereo not given)	inactive: > 100 µM
Cc1n[nH]c(=S)n1/N=C/c1ccc(-c2ccc(Cl)cc2)o1	inactive: > 100 µM
O=C(CCc1n[nH]c(=S)o1)Nc1ccccc1C(F)(F)F	inactive: > 100 µM
O=P1(c2ccccc2)C(c2ccccc2)=CC=C1c1ccccc1	inactive: 20 µM
O=C1CSC2=NC3=C(COC/C3=C\c3ccc(Br)cc3)C(c3ccc(Br)cc3)N12 (stereo not given)	inactive: 58.5 µM
O=c1[nH]nc(Cc2ccc(Cl)cc2)n1/N=C\CC/C=N\n1c(Cc2ccc(Cl)cc2)n[nH]c1=O	inactive: > 75.5 µM
CC1CNC(c2ccc(COc3ccc(C4=NC(C)CN4)cc3)cc2)=N1 (stereo not given)	inactive: > 100 µM
Cc1ccc(N(C)S(=O)(=O)c2ccc([N+](=O)[O-])cc2)cc1	inactive: > 100 µM
CC(=O)OCC(=O)[C@@]1(O)CC[C@H]2[C@@H]3C[C@H](C)C4=CC(=O)C=C[C@]4(C)[C@@]3(F)[C@@H](O)C[C@@]21C	inactive: > 100 µM
C/C(=N/NS(=O)(=O)c1ccccc1)c1cccc[n+]1[O-]	inactive: > 100 µM
CCN(CC)CCNC(=O)c1cccc2nc3ccccc3nc12	inactive: 8.11 µM
C[N+]12CCCCC1C(CN1C(=O)Cc3c4ccccc4c(c4ccccc34)CC1=O)CCC2 (stereo not given)	inactive: > 100 µM
COC1=CC(=O)C2C(C1=O)[C@@H]1c3ccccc3OC[C@H]21 (stereo not given in full)	inactive: > 100 µM
O=[N+]([O-])c1ccc2c(/N=N/c3c(O)ccc4ccccc34)c(O)cc(S(=O)(=O)O)c2c1	inactive: 10.7 µM
O=C(NCc1ccccc1)c1nn[nH]c1O	inactive: > 100 µM
Clc1ccc(C(c2ccc(Cl)cc2)c2cncnc2)cc1	inactive: 16.6 µM
Cc1[nH]n(-c2nc(-c3ccccc3)cc(=O)[nH]2)c(=O)c1CCO	inactive: > 100 µM
CC1=NN(C(=O)c2ccc(Cl)cc2)C(=O)/C1=C/c1ccc(Cl)cc1	inactive: > 100 µM
CC1(C)N=C(N)N=C(N)N1c1cccc(OCCOc2ccc([N+](=O)[O-])cc2)c1	inactive: > 100 µM
c1ccc2c(CNCCCCCCCCNCc3cccc4ccccc34)cccc2c1	inactive: 1.71 µM
CCCCCCCCCCCCCCCCC(C(=O)O)C(O)(CC(=O)O)C(=O)O (stereo not given)	inactive: 19.3 µM
O=C1/C(=C/c2c(Cl)[nH]c3ccccc23)c2ccccc2N1c1ccccc1	inactive: 12.2 µM

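Grown in 96-well plates, cells were treated for 48 hours with each compound at five concentrations. Insufficient inhibition: endpoint recorded as highest concentration tested. The concentration for 50% growth inhibition is given as GI50.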 Activity calls are given as the source filed them. Cut-off read from the data, not from the text of the source: active = GI50 up to about 1.1 µM and inactive = higher.
